The values below come from PubChem BioAssay AID360 (National Center for Advancing Translational Sciences (NCATS), 2006).

Screen size: about 48,000 compounds; about 550 (1.1%) were called active. Not shown: some 4% with an inconclusive outcome. Rule as the data show it: active = potency below about 15 µM; inconclusive = mostly about 16 µM to 33 µM; inactive = weaker than that. The list shows a part of the results. Where only a bound is given, the exact number is not on record here.
Potency is read from the fitted curve at half-maximal effect.

Chain of UniProt P04062 (P04062 whole entry, looked up): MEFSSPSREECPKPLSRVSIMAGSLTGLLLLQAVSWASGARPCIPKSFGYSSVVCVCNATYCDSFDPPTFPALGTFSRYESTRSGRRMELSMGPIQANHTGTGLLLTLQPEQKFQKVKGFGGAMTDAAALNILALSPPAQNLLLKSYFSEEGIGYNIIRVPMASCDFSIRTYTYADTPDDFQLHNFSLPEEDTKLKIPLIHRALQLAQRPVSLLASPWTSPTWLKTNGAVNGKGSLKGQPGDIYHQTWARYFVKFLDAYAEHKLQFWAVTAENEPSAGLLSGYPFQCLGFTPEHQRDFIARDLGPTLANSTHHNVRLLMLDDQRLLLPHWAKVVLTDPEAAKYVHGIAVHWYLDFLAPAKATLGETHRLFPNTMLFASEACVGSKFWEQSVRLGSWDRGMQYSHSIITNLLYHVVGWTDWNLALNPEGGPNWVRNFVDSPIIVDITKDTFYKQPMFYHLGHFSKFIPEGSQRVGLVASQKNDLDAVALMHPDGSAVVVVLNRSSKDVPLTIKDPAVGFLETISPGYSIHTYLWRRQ

The experiment concerns the target Lysosomal acid glucosylceramidase (Homo sapiens) (UniProt P04062). Nature of the experiment: Glucocerebrosidase.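 Also: the screen sought inhibitors.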 The note with it: purified enzyme, resorufin glucoside fluorescence (screen aimed at inhibitors), 20 min; series mostly up to 77 µM. In a few lines:
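Wild-type enzyme at 0.2 nM final in 50mM citric acid/KH2PO4, 10mM sodium taurocholate, 0.01% tween-20, pH 5.9, with resorufin beta-D-glucopyranoside at 30 uM final. Compounds titrated, 20 min at RT, red fluorescence read; AC50 from titration.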
In the case of `O=C(NCc1ccco1)C1CCCN(S(=O)(=O)c2cccc3nsnc23)C1` (stereo not drawn), the Potency was inactive: > 76.9 µM.

On to `CCc1nc(NCCCn2ccnc2)c2oc3ccccc3c2n1`, for which the Potency is inactive: > 76.9 µM.

With `Cc1ccc(C(C(=O)NCc2ccco2)N(CC2CCCO2)C(=O)Cn2nnc3ccccc32)cc1` (stereo not drawn), the Potency is inactive: > 76.9 µM.

Regarding `O=C(CSc1nnc(-c2cccnc2)n1Cc1ccco1)N1CCc2ccccc21`, the Potency was inactive: > 76.9 µM.

For the compound `O=C1c2ccccc2CCC1C(O)c1ccccn1` (stereo not drawn), the Potency was inactive: > 76.9 µM.

With `Cc1c(NC(=O)CSc2nnnn2Cc2ccccc2)c(=O)n(-c2ccccc2)n1C`, the Potency was inactive: > 76.9 µM.

As for `O=C(CN(Cc1ccco1)C(=O)CNS(=O)(=O)c1ccc(Cl)cc1)NC1CCCCC1`, the Potency was inactive: > 76.9 µM.

For the compound `Cn1c(Sc2nc3ccccc3n2C)nc2ccccc21`, the Potency was inactive: > 76.9 µM.

Take `COc1cccc(C2CC(C(F)(F)F)n3ncc(C(=O)NCc4ccco4)c3N2)c1` (stereo not drawn): the Potency was inactive: > 76.9 µM.

`COc1cccc(C2=NOC(C(=O)NCc3ccccn3)C2)c1` (stereo not drawn): the Potency is inactive: > 76.9 µM.

With `O=c1nc2n(c3cc(Cl)c(S(=O)(=O)N4CCOCC4)cc13)CCCCC2`, the Potency is inactive: > 76.9 µM.

Take `CCN(CC)CCNC(=O)CCc1nn(C)c(=O)c2ccccc12`: the Potency is inactive: > 76.9 µM.

In the case of `Cc1cccc(NC(=O)Cn2c(=O)n(C)c3ccccc32)c1`, the Potency is inactive: > 76.9 µM.

For the compound `O=C(NCc1cccnc1)c1cc(-c2ccco2)on1`, the Potency is inactive: > 76.9 µM.

For `O=C(CSc1nnnn1-c1ccccc1)N1CCc2ccccc2C1`, the Potency was inactive: > 76.9 µM.

With `CCN(C1CCCCC1)S(=O)(=O)c1cc(C)ccc1OC`, the Potency was inactive: > 76.9 µM.

With `COc1cccc(-n2c(Cc3cc(=O)[nH]c(=O)[nH]3)nnc2SCC(=O)N2CCC(C)CC2)c1`, the Potency was inactive: > 76.9 µM.

As to `O=C1C2CCCN2C(c2ccccc2F)N1c1ccc(F)cc1` (stereo not drawn), the Potency is inactive: > 76.9 µM.

In the case of `Cc1cc(NC(=O)C2(c3ccccc3)CCCC2)no1`, the Potency was inactive: > 76.9 µM.

With `O=C(CSc1nnc(CCCO)n1-c1ccccc1)NCCc1ccccc1`, the Potency was inactive: > 76.9 µM.

Regarding `O=C(Nc1ccccc1)NC1CS(=O)(=O)CC1O` (stereo not drawn), the Potency was inactive: > 76.9 µM.

As to `CC(=O)Nc1ccc(S(=O)(=O)N2CCC(N(C)CCC(C)C)CC2)cc1`, the Potency was inactive: > 76.9 µM.

Regarding `CC12CCC(C(=O)NCc3ccccc3)(OC1=O)C2(C)C` (stereo not drawn), the Potency is inactive: > 76.9 µM.

For `CSCC[C@@H](Nc1nc(-c2ccccc2)nc2c1oc1ccccc12)C(=O)O`, the Potency is inactive: > 76.9 µM.

Turning to `Cc1cc(NC(=O)CSc2nc3ccccc3[nH]2)no1`, the Potency was inactive: > 76.9 µM.

Take `Cc1c(C(=O)NCc2cccnc2)oc2ccc(S(=O)(=O)N3CCCCC3)cc12`: the Potency is inactive: > 76.9 µM.

`CCCCOC(=O)c1cc(=O)[nH]c2ccccc12`: the Potency was inactive: > 76.9 µM.

As for `COc1ccc2c(c1)c(=O)oc1cc(OCC(=O)N3CCCC(C)C3)ccc12` (stereo not drawn), the Potency was inactive: > 76.9 µM.

Regarding `NC(=O)C1CCN(Cc2nc(-c3ccccc3)no2)CC1`, the Potency is inactive: > 76.9 µM.

Take `Fc1ccc(CSc2nnc(-c3cccs3)o2)cc1`: the Potency is inactive: > 76.9 µM.

Regarding `COc1cc(C2CC(=O)Nc3ccccc3S2)cc(OC)c1OC` (stereo not drawn), the Potency was inactive: > 76.9 µM.

As to `COCCN1Cc2cccc(C(=O)Nc3ccccc3OC)c2C1=O`, the Potency is inactive: > 76.9 µM.

With `Cc1ccc(-c2nc(S(=O)(=O)c3ccc(F)cc3)c(SCC(=O)NCC3CCCO3)o2)cc1` (stereo not drawn), the Potency is inactive: > 76.9 µM.

On to `O=C(Cn1nc(-c2ccccc2)nc1-c1ccccc1)N1CCOCC1`, for which the Potency was inactive: > 76.9 µM.

As for `O=C(NC1CC2CCCC(C1)N2C(=O)Nc1ccccc1)c1ccncc1` (stereo not drawn), the Potency was inactive: > 76.9 µM.

Take `CS(=O)(=O)N1CCc2cc(C(=O)N3CCCCC3)ccc21`: the Potency is inactive: > 76.9 µM.

Consider `CCCOc1ccc(C(=O)N2CCCC2C(=O)O)cc1` (stereo not drawn), for which the Potency was inactive: > 76.9 µM.

Take `NC(=O)c1ccccc1-c1nc(-c2ccccc2)no1`: the Potency was inactive: > 76.9 µM.

Take `CCC1Oc2ccc(C)cc2N(CC(=O)N(Cc2ccc3c(c2)OCO3)CC2CCCO2)C1=O` (stereo not drawn): the Potency is inactive: > 76.9 µM.

Regarding `CN(C)C(=O)N1CCCC(C(=O)NCc2cccs2)C1` (stereo not drawn), the Potency was inactive: > 76.9 µM.

For `CCOC(=O)c1ccccc1NC(=O)CN1C(=O)c2ccccc2S1(=O)=O`, the Potency is inactive: > 76.9 µM.

Take `CCc1nnc(NC2=NCCC2)s1`: the Potency is inactive: > 76.9 µM.

On to `CC12CC(NC(=O)N1CCc1ccccc1)c1ccccc1O2` (stereo not drawn), for which the Potency is inactive: > 76.9 µM.

On to `COc1ccc2[nH]cc(CCN=C3SCC(=O)N3C)c2c1`, for which the Potency is inactive: > 76.9 µM.

In the case of `CCc1ccc2[nH]cc(C(=O)OCCOC)c(=O)c2c1`, the Potency is inactive: > 76.9 µM.

Turning to `O=C(CCN1CCc2ccccc2C1)Nc1ccccc1F`, the Potency was inactive: > 76.9 µM.

Regarding `O=C(c1cccs1)N1CCN(C2CCCCC2)CC1`, the Potency was inactive: > 76.9 µM.

Take `CN(C(=O)CN1CCC(NC(=O)C2CCCCC2)CC1)C1CCCCC1`: the Potency was inactive: > 76.9 µM.

Consider `O=c1ccc2cc(S(=O)(=O)N3CCN(c4ccccc4)CC3)ccc2o1`, for which the Potency is inactive: > 76.9 µM.

In the case of `CCc1nc(SCc2cccnc2)[nH]c(=O)c1C`, the Potency was inactive: > 76.9 µM.

Turning to `C/C(N)=C(/C#N)C(=O)COC(=O)C(NS(=O)(=O)c1ccc(Cl)cc1)C(C)O` (stereo not drawn), the Potency was inactive: > 76.9 µM.

As for `COc1ccccc1C(=O)NCCNC(=O)c1ccco1`, the Potency is inactive: > 76.9 µM.

Consider `O=C(NCc1ccc2c(c1)OCO2)C1CC(=O)N(C2CCCC2)C1` (stereo not drawn), for which the Potency was inactive: > 76.9 µM.

Regarding `CCN1CCN(C(=O)CCN2C(=O)COc3ccc(C)cc32)CC1`, the Potency is inactive: > 76.9 µM.

Consider `CCOC(=O)N1CCN(C(=O)C2CCN(c3ncnc4c3sc3cccc(F)c34)CC2)CC1`, for which the Potency was inactive: > 76.9 µM.

As to `Cc1csc2nc3ccccc3c(=O)n12`, the Potency was inactive: > 76.9 µM.

Consider `Cc1[nH]c(=O)[nH]c(=O)c1S(=O)(=O)N1CCC(C(=O)N2CCN(Cc3ccccc3)CC2)CC1`, for which the Potency was inactive: > 76.9 µM.

With `c1csc(-c2nn3c(Cn4cnc5ccccc54)nnc3s2)c1`, the Potency was inactive: > 76.9 µM.
